Measurements as given in publication PMC6212790.
Some of the results follow. At the low end of the ranking the order means little.

The sequences below were run against T1, GST-Rok-C97-191 (UniProt O34857) (assay: protein binding microarray). Details: Rok is a gene silencer of Bacillus subtilis; high values mean tight binding; most listed sequences are background and not binding sites; double strand, one strand shown.
T1 sequence: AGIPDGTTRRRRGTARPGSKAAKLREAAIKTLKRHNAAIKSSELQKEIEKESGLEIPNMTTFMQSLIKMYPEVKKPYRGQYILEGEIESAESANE
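Further: rank score from −0.5 (least bound) to 0.5 (best bound).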

Sequence	binding signal [E-score]
CACCTTGG	-0.247
ATTGCGGA	0.0617
CAATATTG	0.126
AAGGGGGG	-0.254
GTCTGTGA	-0.135
CTGTGGTA	0.066
GAATTAAC	0.0638
CCCAGGCA	-0.186
TAACTGCA	0.143
CCTGTAAG	-0.149
CAGGTGCA	-0.101
GGATGCAA	-0.124
CGTGTGCA	-0.103
ACGTATCG	0.0273
CCGCCACG	-0.256
ATTGCTTG	0.0118
CAGAACTG	-0.0193
CCATACAC	-0.00448
CTTCTCTC	0.0464
CAATACGG	0.0164
AGTGCACA	-0.00715
CCACCTGG	-0.207
GTGCTGGA	-0.124
CTTACCGC	-0.0741
CGAAGGCA	-0.11

Sequence	binding signal [E-score]
GCAATGAA	-0.0602
AGAGGAAA	-0.147
AATCCTCC	-0.0482
ACCTTGTC	-0.0614
CAGGCACG	-0.333
ATCTAATG	0.0475
ACTAGAAC	0.255
CACGCGGG	-0.235
GCAGCCTA	-0.111
TGTAGAAA	0.35
CTGCGCAC	-0.181
CACGACGA	0.0734
CAGGACCG	-0.265
AAAACGCC	-0.219
CGGCCGGA	-0.136
GCACGCTA	0.0309
AAGGAGTA	-0.115
CGCAATCA	0.0555
GTGTTTCA	0.0533
GTATTACA	0.186
AATGGGGC	-0.139
AAGAAGAC	0.074
CAAACAGG	-0.186
TACAAATA	0.359
AACTCCCG	-0.0411

Sequence	binding signal [E-score]
AATCGCAA	0.000881
GCAATGCC	-0.104
GACAATTA	0.0675
CGCACAAC	-0.025
GCCGTCCC	-0.175
ACATATAT	0.4
TAAGCCAA	-0.032
CATGTACG	0.0809
AGGCGGAA	-0.0614
GCCGTCGC	-0.194
CTGCCCAG	-0.33
CTTTCAAA	-0.207
GCCCGTCA	-0.212
CGACACAC	-0.0695
GGTGGAAA	0.027
AAGAAGAT	0.0078
AGGGTACG	-0.127
AAAACAGC	0.0515
GCCGCTCC	-0.293
CGGGTTAC	-0.168
TAGGATAA	0.0184
GTTGGAGA	-0.0321
GAAGTGCA	-0.0346
GAACCGCC	-0.164
CGGCACTC	-0.0669

Sequence	binding signal [E-score]
AGACCAAG	-0.213
CCTCCCTA	-0.171
CTCTGGTA	0.0733
GTCACAAC	-0.203
CACGGAAA	-0.0278
CATTCGTC	-0.124
AATCCATT	0.0476
AGATTACG	0.114
CTTACACC	0.111
ATTACCCA	0.223
CGTCACAG	-0.0393
AGCCGTGG	-0.135
CCAAGTAC	0.11
AAGAGAGA	-0.188
AGTGACCG	-0.155
CGGCCCAC	-0.213
ACCCTTTG	-0.117
ATTACGGG	-0.016
AGCTCGGC	-0.0356
AACATGTA	0.237
ACTCCCAA	-0.0151
GGGAATGA	-0.284
ACAACGAT	0.0651
GACTACGA	0.0584
CCCAAGAC	-0.133

Sequence	binding signal [E-score]
ATTCGGGG	-0.103
CGACCGGC	-0.134
GGTTTCCA	-0.226
AACGCTCG	-0.199
GAATTCAA	-0.016
CCACCACA	0.0146
AGTTGTAA	0.27
TAGCTACA	0.353
AGTATGAA	0.202
GGGCTCGA	-0.181
CACCCTAG	-0.0149
CAATGGGG	-0.222
CGGCCAGC	-0.16
TACGATGA	0.0784
GTAAGCAA	-0.00275
AAACTCTT	0.063
AGTGTGCA	-0.123
TCTGACCA	-0.248
GACCCCTC	-0.39
CCCGTCAA	-0.304
CAACTCGC	0.0199
AATATTAA	0.285
ATGCTGGA	-0.156
CGCCCATA	-0.193
ATTATCCA	0.0324

Sequence	binding signal [E-score]
ATGCACGC	-0.173
TAGTGCCA	-0.0248
GCGGCAAC	-0.135
CGTAATGA	0.0414
AGCTCTCG	0.0481
GTACCTTA	0.279
CGCCTGAC	-0.301
AAAAGTAT	0.239
ATGTACTA	0.376
GTTCATGA	0.0865
ACCTCATA	-0.018
GTGCACAA	0.113
ATCCATGA	0.148
ACATCAAA	0.02
AAAACTAC	0.433
AGAGAGCT	-0.122
AAAAGCGC	0.137
CTGGCACA	-0.256
ACAGAGCG	-0.117
CGAGACTC	-0.147
ACAATCAT	0.115
AGGAAGTA	0.141
ATTTGAGG	-0.0528
CTACTGTC	0.234
GCTGTGAA	0.000123

Sequence	binding signal [E-score]
AGGCGATC	-0.147
AGGAGGAG	-0.27
ACGAAGGC	-0.285
TAACTTCA	0.162
ACGATTCT	0.252
GGCTACAC	-0.226
GTGAACAA	0.0221
AACTTACA	0.135
TACGTCAA	0.0537
GGAAACAC	-0.216
ACTTTCAA	0.00898
CAGTTGTA	0.1
ATAACGGG	0.0899
ATCTCTGC	-0.0825
CACACGTG	-0.0488
AGATAGAA	0.308
TGATTGAA	-0.0411
GATCTTGC	0.127
TAGTCTGA	0.176
CACTCGTC	-0.215
ATGCAGCA	-0.212
ACATCTAT	0.309
CCGTGTAG	-0.173
TCACGACA	-0.095
CTCGTACC	-0.0243

Sequence	binding signal [E-score]
CACTCTAC	-0.0406
ATCTCGTC	0.0835
CGTACTGC	-0.0786
CGGTTCAC	-0.00825
ACTGAAGT	0.155
CTGATCGC	-0.235
GGAGACCC	-0.339
ATGACCGG	-0.048
ACCTTGAA	-0.0826
CAGGCGCC	-0.149
CGGTGATA	-0.112
TCGATAGA	0.231
AACAGCAA	0.0517
ATCAATAA	0.124
TATCAGAA	0.0835
GGTACGAC	-0.188
ATGGATAG	0.0788
ACGGCCCG	-0.272
GCATCTAC	0.0595
AACACTCG	0.016
ACGCTGGC	-0.0717
ACGCAATC	0.0373
AATCTTTA	0.129
CTCAATAC	0.105
CACTTGAA	-0.00847

Sequence	binding signal [E-score]
GTGGTAGA	0.433
CCTCCCAC	-0.142
AATAGTGG	0.168
CAAAGCAG	-0.152
ACGAATTA	0.208
AAGTCGAA	-0.0343
AATCATAG	0.176
AAATCCAG	0.115
CAAAAGCG	0.0268
CGACATAA	0.105
AATTGCAC	0.0389
CCGGGTGC	-0.27
AATACTGT	0.083
CTGACCAG	-0.171
CTACACAG	0.147
ATAAACCA	0.249
AGGTCAAA	0.0797
AGGGTTCA	-0.199
ACCGGTAA	0.192
ATAATGCC	0.0188
CCGGGAAC	-0.263
TATGCAAA	0.156
GTGCCTGA	-0.0736
ACCAACCG	-0.0348
ATACCAAT	0.301

Sequence	binding signal [E-score]
GATATTGA	0.0914
CCTCACAC	0.00364
AAGCCCTG	-0.245
CATGAGCA	0.11
ACTTAGAC	-0.189
TCACTACA	-0.0801
AACATAGG	0.0412
ATTGGTGC	0.0558
CTTACAAG	0.00119
ATGGAGTC	0.133
AAATTGGA	0.0993
TCATCGCA	-0.062
GCAGGCAC	-0.297
CTGCCTGA	-0.0503
TCAGCCGA	-0.0187
CTGAATAA	0.237
CGAAGCAA	-0.0947
GAAACGGA	-0.0528
CACCGTGA	-0.0456
TAACGGGA	0.19
TGATGGAA	0.127
CGGCACGC	-0.195
GGATTGCA	0.0474
TCACATAA	0.139
ATGCAGGA	0.0131

Sequence	binding signal [E-score]
GTATCGCA	0.0404
ACCTCCCA	-0.101
ACCTCCCT	-0.213
CGACCTCA	-0.205
AGGGGCGC	-0.249
CCAAGATC	-0.0335
CAGAGTTC	-0.1
ATTTGGCC	0.107
GGGCGTAA	-0.233
GGAACGCC	-0.232
TCCTGGCA	0.00673
ACCGGGAA	-0.0434
ACCGCCGG	-0.192
CCTTCCCA	-0.317
CAATACCA	0.0679
AGAGATCT	0.0463
CGACCCGC	-0.259
TAATAAAA	0.344
ATAGCAGC	-0.0351
CAACGGCA	-0.159
TAATGCCA	-0.0387
CGCCATTC	-0.0839
TCCAGAAA	0.0914
CCAAACGC	-0.127
AGACGCCG	-0.301

Sequence	binding signal [E-score]
GAAATTCC	0.141
AGATGAAG	-0.0366
ACGCCAAA	-0.128
AGGGCAAT	-0.0534
ACTAGGAC	-0.0957
AAACTCGA	-0.0345
GCCTGTCC	0.0602
CCTATGGA	-0.0967
CTGTTGTA	0.111
CTGTAAGA	0.106
CCAAGTAG	0.0496
CGGTGTAG	-0.0885
AGCGAATA	0.0128
CAATGTAG	0.26
CTTCGGGA	-0.0954
ACCGACGA	-0.0294
CACTTAGA	-0.0634
GCGCGCGA	0.139
AGAGCGCT	-0.156
AGTCCAGA	0.062
AGCGGCTC	-0.0681
CCCGATCG	-0.0607
CACAACAG	-0.115
CCTGTCGC	-0.335
GAACTCCA	0.044

Sequence	binding signal [E-score]
CACACGTA	0.0779
CGCGTAGA	0.0474
GGAAGTCC	-0.143
ATGAGCCG	-0.128
ATCATCAT	0.0703
CACGAAGA	-0.182
TGTAACAA	0.199
AGTCACTG	-0.0498
GCATGTAA	0.0226
GTGGTCTA	0.12
AGCTCTTG	0.0373
ATCTTCTC	0.19
GATGGCAA	-0.0662
CGCCGGGC	-0.295
CATACCTA	0.248
AAGTGAAA	0.0644
ACGACGAG	0.00446
AAACCATG	-0.0133
TATCCTCA	0.0877
AAGCGAAA	-0.0979
ACACAAGT	0.106
AGTTTTGC	0.21
ACGTTGAG	-0.0141
GAAATTAA	0.278
ACCATGAT	0.145

Sequence	binding signal [E-score]
TAACTCGA	-0.00764
ATGCTACG	0.0354
AAACCCAT	-0.101
CGTCCAAC	-0.227
ACTGCCCG	-0.113
ATGTACAA	0.317
CTCCTACC	-0.0472
CCAAGACC	-0.00995
AAATAATG	0.24
AGTCGCAA	-0.123
ATTAGTAC	0.269
ACGACTTA	0.051
ATTGACCA	0.139
ATTACCCG	0.0583
TACAGTCA	0.144
GCCTCGAA	-0.00639
AGACTCCC	-0.161
TACAGCGA	0.0672
ACCTCTTG	0.072
